Tested on: TMP1-specific CD8+ T cells
Conditions: oral gavage + CTX; dLN/mLN, spleen or MCA205 tumor

With Enterococcus hirae strain IGR7 [IGR 7] the “accumulation of TMP epitope 1 prophage 2 specific CD8+ T cells (tetramer)” value was “accumulate in dLN and spleen”.

Source: US12102672B2, “Immunogenic sequences from a phage tail length tape measure protein, bacteria expressing the same and their use in treating a cancer” (INSTITUT GUSTAVE ROUSSY, priority 2017, dated 2024)
